This data set deals with the molecule itself. The data set can be described thus: SEC. For orientation: Size exclusion chromatography separates by hydrodynamic size, large species first.

B1: recombinant SAMHD1(LF620AA) (enzyme)
chain: not shown
Take B1: the binding result is given as “binds”.

These data come from PMC3624423, “Tetramerization of SAMHD1 Is Required for Biological Activity and Inhibition of HIV Infection*^([image sbox.jpg])” (The Journal of Biological Chemistry, 2013).
